Measured values: the supplement of paper PMC11417369
± gives the standard deviation of the averaged measurements. This is one part of the list.

Tested on: PfAP2-G AP2 domain (GST-tagged)
Assay: gcPBM binding intensity (ln(normalized median fluorescence intensity)); higher = stronger DNA binding
Method in brief: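 GST-fused DNA-binding domains of P. falciparum, expressed in E. coli, were applied at about 25 μg on average for 1 h to an Agilent 4 × 180k array of primer-extended double-stranded 36-bp intergenic genomic probes and negative controls. Binding intensity is the highest Masliner-normalised natural-log median intensity across replicate spots of either probe orientation, measured with Alexa488 anti-GST antibody and a 488 nm scan.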

Sequence	gcPBM binding intensity (ln)
TACACCCACCCACATACACACACATACACATATATA [CACACA_site8503]	10.3 ± 0.35
TATATTTATCCATACAAGAAAAAAAAAAAAAAAATA [CACACA_negctrl_site1328]	9.76 ± 0.29
TAATGAGGAAATACAGCACACGTTATTACACTTTTC [CACACA_site5399]	10.05 ± 0.085
AAATTGGTTCATCAATGTACATGTAAAATAAATCAA [XGTACX_site4795]	11.1 ± 0.63
TATTTGATCTAAAGAGCATGCAAAAACGAACAAGAT [TGCATGCA_site136]	10.3 ± 0.26
ATATCGTTATTTTTATGTACTAAAATATTTAATTAT [XGTACX_site3516]	11.2 ± 0.73
CACATATAAATATTAACACACATAATGAATTATATA [CACACA_site2741]	9.915 ± 0.035
ATATATAAAAATTAGGTGCATTAAATTAAAATATAT	10 ± 0.26
CAAATAAAAACAAAACGTACGAATAAATTATTGTTA [XGTACX_site5136]	10.9 ± 0.42
AGCATATTATTTTAGGTGCACTTGAAATGTGTTAAC	10.3 ± 0.23
TTTAAATAAAATATTACACACTTAGAAAGATATATA [CACACA_site7684]	9.88 ± 0.028
TTTTTTTTTTATTGTACATGCAAAAAATTCCACACA [TGCATGCA_site279]	11.1 ± 0.6
TTTATATAAATTTTTTGTACACAAGTAAAAACGCGT [XGTACX_site2459]	11.2 ± 0.64
ACACAAATAAATATAACATATATATTATATTATATT [CACACA_negctrl_site710]	9.86 ± 0.13
CAAACAAACAGACACACACACACACCCAAAAATGAT [CACACA_site2430]	10.1 ± 0.12
ATAAAATATATATATATAAAAATAAATACATAAATA [GTGCAC_negctrl_site157]	9.805 ± 0.064
TTTTTTTTTTTTTTTTTACACACTTTATTCAAACAA [CACACA_site9360]	9.82 ± 0.49
TCAATATTAAATTATTGTACATGTATGTATATATAT [XGTACX_site3861]	10.9 ± 0.52
TAACAATAACTTTATACACACATAATATATATATAT [CACACA_site3543]	9.96 ± 0.085
TGTATTTATAATAAAACACACATTTTTAATGTGCTC [CACACA_site4908]	9.73 ± 0.042
TTTTTTTTTTTTTTTTTTTTCACATGTGTGGAAAAA [GTGCAC_negctrl_site352]	9.8 ± 0.45
TTAAAATATACATAAACACACACAAAACGTTTAAGA [CACACA_site8267]	10.1 ± 0.18
AATTTAAAATATATAGTACACACGTGAACACAAATA [CACACA_site416]	11.4 ± 0.72

Sequence	gcPBM binding intensity (ln)
AGGATATATAAGTATACACACATATTTATATTTATA [CACACA_site6239]	9.875 ± 0.035
TTTTAACGTAAAACATTGATGATATAAAAAATAGGA [GTGCAC_negctrl_site540]	10.1 ± 0.18
TATACTCATATTTTTACACACATATTTTTTCATATA [CACACA_site5412]	10.1 ± 0.2
CATATACTTCTGTGCACACGAATATTTTTCTTCTTC [CACACA_site1407]	10.5 ± 0.19
TGTTGTCCTAATTCTACACACAATGGTTTATTAAAA [CACACA_site2648]	11 ± 0.79
TTTGTGTTTATAAATTGTACAAAGGTGCAAGAAGAA [XGTACX_site2159]	11 ± 0.61
AAAAAAAAAAAAAACACACACACACCCATAAATATA [CACACA_site151]	10.2 ± 0.16
AAGTGCATATTATTCACACATAATAATTGTATACCT [CACACA_site5965]	9.95 ± 0.014
TTCAAGCCCTTCTGCTTACACACAGTAATTATTGTG [CACACA_site2952]	10.35 ± 0.099
TATTTTTATTATATGGTGCATATATACATACATATA	10 ± 0.22
AAAAAAAAAAAACACACACACAATAGTATATAAATC [CACACA_site956]	10 ± 0.11
ATATGATCATAAAACACACACACAAAAAAAAAAAAA [CACACA_site1806]	9.88 ± 0.42
TAAAAATAATTTGCATGTACATAGGTCGATGTATTT [XGTACX_site1357]	11 ± 0.49
ATCCACTTTTTGAAGACACACACAAAAAAAAAAAAA [CACACA_site8818]	10.2 ± 0.47
AATTAGATGGATAAATGTACATAATGTGAATATATT [XGTACX_site86]	11 ± 0.4
ATATAGAAAATGCATACACACTTTATAAATATATTT [CACACA_site6553]	9.945 ± 0.092
AGATATTTATTGAGTGCATGTTATAAAGGGAAAAAA [TGCATGCA_site88]	10.2 ± 0.25
TGTAAATTATAACGTGCACACATATTTAAAATGAAA [CACACA_site8915]	10.5 ± 0.34
ACGAAGATTTATCTTGCACACGCAAAAAAAAAAAAA [CACACA_site7933]	9.86 ± 0.27
AACATTTCCTTTCTGTGTACATATAAACCCATCTAT [XGTACX_site2071]	11.5 ± 0.73
ATATAAATAAAATATACACACATAAATATAACGACA [CACACA_site1637]	10.1 ± 0.17
ATTCATAAACGTGTGTTAATATGAATTTAAACATAA [XGTACX_negctrl_site213]	9.67 ± 0.014
ATTATATTTTGTAAATGTACATTTATATATTTTGTA [XGTACX_site1226]	10.9 ± 0.61

Sequence	gcPBM binding intensity (ln)
AAAAAAAAAAAAAAAGCATGCACATATTATTTTTTT [TGCATGCA_site416]	10.19 ± 0.035
TTTAATTTTCGGTGTGCACACAACTATGAGTTTTTA [CACACA_site3034]	10.7 ± 0.42
TTAATAATTAATTATAGTACACATTTATATTAATAA [XGTACX_site190]	11.3 ± 0.95
TTATTTAAAAAATTTTTAAATATACAAAAAAAAAAA [TGCATGCA_negctrl_site464]	9.81 ± 0.13
ATTATAAGAAGGGGGGGTACATAAATATAAATGTAT [XGTACX_site5624]	11.9 ± 0.95
TTTAAAAAAAAAAATACACACATAAAAATTTTCAAA [CACACA_site703]	9.9 ± 0.085
AGGATTAAAAAAACATGTACGTATTTAAATATATTT [XGTACX_site8774]	11.4 ± 0.81
TACTGGTATCGATATAGTACATATAATATTATGTTA [XGTACX_site7490]	11.1 ± 0.69
AATTGAATAAATTAAACATGCACAGATGTTCTATTT [TGCATGCA_site692]	9.63 ± 0.25
AAATAAAAAATATGAACACACATATATAACAAAATA [CACACA_site261]	9.95 ± 0.12
GTATAAAAAAATAAAAGTACAAAAAAAAAAGACTGA [XGTACX_site186]	11.4 ± 0.77
TTTTTTTTTTTTTTTTTTTTTTTTTTTTTTTTTTTT [CACACA_negctrl_site104]	11.2 ± 0.69
ATATATTTATTTTGTGCACACAACGCAAACCTTTTA [CACACA_site3508]	10.5 ± 0.27
ATTTTTTCTTTTCGATGTACCCTTCTTATTCTTTAT [XGTACX_site3782]	11.1 ± 0.72
TATATCGCCTTCAAAAGTACTCATATAAAAAAAAAA [XGTACX_site7123]	11.2 ± 0.86
TTTATTTTTCATTGGGGTACACAAGTTTATTTTTGA [XGTACX_site4262]	11.7 ± 0.86
ATATCGTTTTTAAATTGTACATTCACTATAGAATAA [XGTACX_site6442]	10.9 ± 0.56
TTCTTTGTTTTTTTTTTTTTTTTAAAAGATAATATT [XGTACX_negctrl_site381]	9.81 ± 0.33
AAAAAAAAAAAAAAATGTACTTTTATTATTAATATA [XGTACX_site6357]	11.1 ± 0.71
AGTTCATATTTAAAAAGTACATATTTAAAAACTTCT [XGTACX_site4882]	11.4 ± 0.88
TTTGAACTTTTATATACACACATTATTATAGTATAG [CACACA_site6851]	10.04 ± 0.071
TTTTTGTATGCTTCCCGACTACATTATGTCGTAAAT [GTGCAC_negctrl_site164]	10.22 ± 0.092
AACAAAGAGAAATAAACACACACAAAATAAAGAAAA [CACACA_site8704]	9.81 ± 0.13

Sequence	gcPBM binding intensity (ln)
ATTAATTAAAATAGTTGTACAATCAAAAAAACAAAA [XGTACX_site7660]	11.4 ± 0.87
GATATTACGTGTTTGGTATTTTTTGATGTTAATAGG [CACACA_negctrl_site105]	10.21 ± 0.064
TATAAAATAATTAAATGTACATAATATATAAAATAT [XGTACX_site6777]	11.1 ± 0.35
TTATAAATATTCACTGTGCACTGATGGAATATAAAT [GTGCAC_site9739]	10.3 ± 0.33
AGAATATATAAGTATACACACATATATATATATATA [CACACA_site201]	10.1 ± 0.36
ATATCGAAAATTTGGTGTACATTTTTATTTGTTCAA [XGTACX_site3094]	11.5 ± 0.93
ATTTAAATAATATGTACACACATTTAAAAAGTTATA [CACACA_site7347]	11.6 ± 0.94
TAATATTTCGTTAAGTTTTAAAGAAAAAAAAAAAAA [CACACA_negctrl_site1253]	9.71 ± 0.43
AAATTAAATGATAGAGCATGCGCTAAAAATGAGAAA [TGCATGCA_site937]	9.66 ± 0.19
ACACATATAATAGTTACATGCAAAAATACTTTTATT [TGCATGCA_site785]	9.99 ± 0.085
TTTTTATAACATAAAAGTACATATTTTTAATTTAAT [XGTACX_site4394]	11.1 ± 0.81
CATTCTACAATAAAAAGTACATATATATATTATATA [XGTACX_site921]	11.4 ± 0.93
TCAAAAAAAATTTTAGTGCATATTTTAGTCAAAACA	9.98 ± 0.18
TTTTGCAAATATTACTGTACACAATCTCATATAATT [XGTACX_site2584]	11.4 ± 0.76
TTTTCAGAAAGACATGCATACAAAAATAAAAAAGAT [TGCATGCA_site814]	10.2 ± 0.12
AAATTAAAAATAATTACACACATAGAAAAGTTATAT [CACACA_site7137]	9.79 ± 0.13
TTATAGTAATAATAATGTACATTTATACACATATAT [XGTACX_site1965]	10.9 ± 0.47
ATATATATATATATAACATGCAAAGTTCAAAAAAAA [TGCATGCA_site943]	10 ± 0.13
AAAAAAAACAGACACACACACACATATACATACATA [CACACA_site2665]	10.01 ± 0.014
ACCCAAGAGAAAAGAGAAAGAAATATGTGTATATTG [GTGCAC_negctrl_site214]	9.92 ± 0.042
